Source: PubChem BioAssay AID504333 (National Center for Advancing Translational Sciences (NCATS), 2011)
In all, about 360,000 compounds went through this assay and about 16,000 (4.4%) were called active. Inconclusive results, whose numbers are uncertain, are shown with a selection of clear calls. The call rests on the fitted dose curve; in most records, active means well fitted inhibition curve with a large enough effect; inconclusive means small, poorly fitted or top-dose-only effect; inactive means no such curve, though single readings can be large or run the other way. A potency beside an inconclusive call is a rough fit, not a confirmed value.

Each compound was assayed against Bromodomain adjacent to zinc finger domain protein 2B (Homo sapiens) (UniProt Q9UIF8) (assay: qHTS Assay for Inhibitors of BAZ2B). Details: AlphaScreen BAZ2B-H3K14Ac peptide displacement; activity change, negative = inhibition: at 114 µM (top of the series).
Chain of UniProt Q9UIF8 (Q9UIF8 whole entry, looked up, the tested form may be a part): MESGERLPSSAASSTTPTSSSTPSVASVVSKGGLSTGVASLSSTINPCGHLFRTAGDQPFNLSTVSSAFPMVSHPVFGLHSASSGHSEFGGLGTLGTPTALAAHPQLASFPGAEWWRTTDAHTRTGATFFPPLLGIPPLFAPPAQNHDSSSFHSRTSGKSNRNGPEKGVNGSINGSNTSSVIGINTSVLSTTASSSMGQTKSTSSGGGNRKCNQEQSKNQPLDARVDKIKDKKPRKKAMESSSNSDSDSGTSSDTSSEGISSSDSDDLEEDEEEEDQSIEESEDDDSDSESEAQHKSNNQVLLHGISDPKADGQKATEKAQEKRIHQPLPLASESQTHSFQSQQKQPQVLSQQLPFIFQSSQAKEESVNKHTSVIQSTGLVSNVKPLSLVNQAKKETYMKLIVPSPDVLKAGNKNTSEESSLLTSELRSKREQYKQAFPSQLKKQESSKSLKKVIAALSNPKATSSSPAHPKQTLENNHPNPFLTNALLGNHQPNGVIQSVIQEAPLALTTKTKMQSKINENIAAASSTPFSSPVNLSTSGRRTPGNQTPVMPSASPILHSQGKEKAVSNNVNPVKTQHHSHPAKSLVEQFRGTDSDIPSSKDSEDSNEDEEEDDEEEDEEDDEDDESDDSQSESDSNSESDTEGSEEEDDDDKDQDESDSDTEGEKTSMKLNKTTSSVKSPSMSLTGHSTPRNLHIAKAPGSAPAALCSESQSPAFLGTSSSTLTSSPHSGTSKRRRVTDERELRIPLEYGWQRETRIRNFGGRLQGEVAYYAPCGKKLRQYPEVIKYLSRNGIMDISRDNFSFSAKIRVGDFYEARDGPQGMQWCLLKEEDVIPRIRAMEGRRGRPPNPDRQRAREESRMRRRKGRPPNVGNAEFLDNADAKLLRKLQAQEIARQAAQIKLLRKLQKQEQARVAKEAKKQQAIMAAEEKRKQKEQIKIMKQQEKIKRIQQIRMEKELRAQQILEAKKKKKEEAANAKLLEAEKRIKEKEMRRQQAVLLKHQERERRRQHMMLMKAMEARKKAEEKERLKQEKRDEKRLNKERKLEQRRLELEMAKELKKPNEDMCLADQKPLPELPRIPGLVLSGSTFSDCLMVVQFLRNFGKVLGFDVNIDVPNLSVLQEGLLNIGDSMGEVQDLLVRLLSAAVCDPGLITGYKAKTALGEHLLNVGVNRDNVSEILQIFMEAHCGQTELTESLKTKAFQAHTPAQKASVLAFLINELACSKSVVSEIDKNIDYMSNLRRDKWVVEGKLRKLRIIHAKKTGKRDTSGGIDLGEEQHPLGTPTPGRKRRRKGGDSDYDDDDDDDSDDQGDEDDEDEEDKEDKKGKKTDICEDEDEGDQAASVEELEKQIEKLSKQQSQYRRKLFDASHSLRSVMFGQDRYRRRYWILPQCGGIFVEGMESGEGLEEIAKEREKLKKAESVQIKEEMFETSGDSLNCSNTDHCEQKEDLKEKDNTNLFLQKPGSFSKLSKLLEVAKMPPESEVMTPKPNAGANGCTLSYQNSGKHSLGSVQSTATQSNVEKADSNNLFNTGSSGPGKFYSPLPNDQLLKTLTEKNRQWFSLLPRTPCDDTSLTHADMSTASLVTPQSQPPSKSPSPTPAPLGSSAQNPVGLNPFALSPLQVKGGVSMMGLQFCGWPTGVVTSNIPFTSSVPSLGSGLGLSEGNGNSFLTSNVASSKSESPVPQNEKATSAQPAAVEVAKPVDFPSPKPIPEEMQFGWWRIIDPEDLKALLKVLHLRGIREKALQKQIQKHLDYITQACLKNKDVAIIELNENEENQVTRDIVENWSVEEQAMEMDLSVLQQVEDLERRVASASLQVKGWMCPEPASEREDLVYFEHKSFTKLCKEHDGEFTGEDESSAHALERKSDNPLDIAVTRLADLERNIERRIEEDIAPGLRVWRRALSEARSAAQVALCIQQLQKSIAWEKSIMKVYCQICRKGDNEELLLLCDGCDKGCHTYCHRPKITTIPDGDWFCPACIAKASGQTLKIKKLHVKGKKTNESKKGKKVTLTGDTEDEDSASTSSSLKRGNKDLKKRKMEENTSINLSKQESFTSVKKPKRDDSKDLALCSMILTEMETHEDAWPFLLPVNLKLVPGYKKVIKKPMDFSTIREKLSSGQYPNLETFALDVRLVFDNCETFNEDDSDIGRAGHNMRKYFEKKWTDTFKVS
Procedure, shortened: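 Inhibition is scored as reduced AlphaScreen emission. The BAZ2B/b-H3(5-23)K14Ac complex (50 nM each) in PBS pH 7.4, 0.01% Tween-20 meets compound (up to 110 uM) for 30 min at RT before bead addition.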
Further: nearly all actives have a fitted effect of over 60% in size.
On the % scale 0 is the no-effect control and ±100 the full control effect; potency means the concentration at half of the fitted maximal effect; tags describe the fitted curve by direction and shape.

Compound	Potency	activity change, negative = inhibition
COc1ccc(C(=O)N/N=C/c2ccc(OC)c(COc3c(F)c(F)cc(F)c3F)c2)cc1	inconclusive: 89.1 µM [inhibitor, single point]	
Cc1ccc(CN(Cc2cccn2-c2nnc(N3CCCC3=O)s2)C(=O)Nc2ccccc2C(F)(F)F)cc1	inconclusive: 50.1 µM [inhibitor, partial curve]	
CCn1c2ccccc2c2cc(N)ccc21		inactive: -32.4%
COc1cc(C2NCC(c3ccc(Cl)cc3Cl)c3c2[nH]c2ccccc32)cc(OC)c1OC (configuration not stated)	active: 35.5 µM	
COC(=O)c1c(NC(=S)Nc2ccc(F)cc2[N+](=O)[O-])sc2c1CCCCC2	inconclusive: 70.8 µM [inhibitor, single point]	
COC(=O)c1cc(=O)n(Cc2ccco2)c(=Nc2ccc(F)c(Cl)c2)s1	inconclusive: 28.2 µM [inhibitor, full curve]	
CSc1ccccc1C(=O)Nc1nccs1	inconclusive: 89.1 µM [inhibitor, single point]	
CCc1nc(SCc2cc(=O)c3cc(C)ccc3[nH]2)n[nH]1		inactive: 10.3%
CCc1cccc(NC(=O)CSc2nc3ccsc3c(=O)n2CC)c1		inactive: 6.52%
S=C1NCCc2ccccc2C1c1ccccc1Cl (configuration not stated)	active: 44.7 µM	
O=C(O)c1cccc(NC(=O)c2ccc3c(c2)C(=O)N(C2CCCCC2)C3=O)c1		inactive: 5.03%
Cc1ccc(S(=O)(=O)N/N=C/c2ccccc2O)cc1[N+](=O)[O-]		inactive: -38.5%
CC(C)NC(=O)/C(C#N)=C/c1cccc(NC(=O)c2ccccc2Cl)c1	inconclusive: 89.1 µM [inhibitor, single point]	
COc1ccc(C)cc1-n1c(=O)c2ccccc2c2ccccc2c1=O	inconclusive: 50.1 µM [inhibitor, partial curve]	
O=S(=O)(c1ccc(Cl)cc1)c1nc(-c2ccccc2)oc1N1CCN(c2ccccc2)CC1	inconclusive: 2.51 µM [inhibitor, full curve, poor fit]	
CCc1nc(SCC(=O)c2cccc([N+](=O)[O-])c2)n[nH]1		inactive: 0.435%
CC(=O)[C@H]1[C@H](c2cccc(Cl)c2)C(C#N)(C#N)[C@@H]2c3ccccc3C=CN21	inconclusive: 79.4 µM [inhibitor, single point]	
Cc1nc2ccccc2n1C(=O)c1ccc(Cl)cc1[N+](=O)[O-]	inconclusive: 89.1 µM [inhibitor, single point]	
Cc1ccc(NC(=O)CCN2C(=O)NC(C)(C)C2=O)cc1F		inactive: 9.07%
CC(NC(=O)COC(=O)/C(=C/c1cccs1)c1cccs1)c1ccccc1 (configuration not stated)	inconclusive: 44.7 µM [inhibitor, partial curve]	
Cc1ccc2sc(NNC(=O)c3ccc4c(c3)OCCO4)nc2c1C	inconclusive: 8.91 µM [inhibitor, full curve]	
CC(=O)NC1(C(F)(F)F)N=C2SCCN2C1=O (configuration not stated)	inconclusive: 35.5 µM [inhibitor, single point]	
COc1ccc(CCN(C)C2CCCN(S(=O)(=O)c3ccccc3)C2)cc1OC (configuration not stated)	inconclusive: 79.4 µM [inhibitor, single point]	
CC(C)c1nc2sc3c(=O)[nH]c(=S)[nH]c3c2c2c1CCCC2	inconclusive: 70.8 µM [inhibitor, single point]	

Compound	Potency	activity change, negative = inhibition
COc1cc(OC)c(NC(=O)Nc2c(C)n(C)n(-c3ccccc3)c2=O)cc1Cl		inactive: 2.55%
CCOC(=O)c1ccc(N2C(=O)c3n[nH]c(-c4ccco4)c3C2c2ccc([N+](=O)[O-])cc2)cc1 (configuration not stated)	active: 39.8 µM	
Cc1ccc(C(=O)C2=C(O)C(=O)N(CCN3CCOCC3)C2c2ccccn2)o1 (configuration not stated)	inconclusive: 89.1 µM [inhibitor, single point]	
Cc1cc(OCCCN2CCCC2)ccc1Cl		inactive: 4.88%
COc1ccc(C(=O)NCC(c2ccc(N(C)C)cc2)N2CCc3ccccc32)cc1 (configuration not stated)	active: 8.91 µM	
Cc1ccc(/C=N/NC(=O)CSc2nc3ccccc3n2Cc2ccc(Cl)cc2)o1	inconclusive: 22.4 µM [inhibitor, full curve]	
COc1ccc(NC(=O)Nc2cccc(F)c2)c(OC)c1	inconclusive: 79.4 µM [inhibitor, single point]	
COCCCNc1nc2c(-c3cccc(C)c3)nnn2c2ccc(Cl)cc12	inconclusive: 89.1 µM [inhibitor, single point]	
O=C(CN1CCOCC1)Nc1ncc(Cc2cccc3ccccc23)s1	inconclusive: 89.1 µM [inhibitor, single point]	
COc1ccc(C2c3sc(=O)[nH]c3SC3C4CCC(C4)C23)cc1OC (configuration not stated)	inconclusive: 39.8 µM [inhibitor, full curve]	
Fc1ccc(CN2CCSCC2)cc1F	inconclusive: 89.1 µM [inhibitor, single point]	
NC(=S)N/N=C/c1ccc2ccccc2c1		inactive: -7.08%
COc1cc(OC)cc(C(=O)N[C@H](C(=O)OCC(=O)Nc2sccc2C#N)C(C)C)c1	inconclusive: 56.2 µM [inhibitor, partial curve]	
Cc1cc(C(=O)O)c2ccccc2n1	inconclusive: 89.1 µM [inhibitor, single point]	
O=c1cc(O)nc(-c2ccc(Cl)cc2)s1		inactive: -35.8%
COc1cccc(O)c1CN1CCC(C(=O)Nc2ccc(-c3cccc(C)c3)cc2)CC1		inactive: -36.2%
Cc1ccc(S(=O)(=O)NCC(=O)NC2CC2)cc1		inactive: 0.0848%
O=C(O)CCc1ccc(-c2ccccc2)n1CC(=O)Nc1cccc(C(F)(F)F)c1	inconclusive: 89.1 µM [inhibitor, single point]	
CCOC(=O)Cc1ccc(NC(=O)N2CCC(CN3CCCCCC3)CC2)cc1		inactive: -9.27%
CN1CCN(S(=O)(=O)c2cccc(C(=O)N(C)CC(=O)Nc3ccc(F)c(F)c3F)c2)CC1	inconclusive: 89.1 µM [inhibitor, single point]	
CCN(Cc1nc(-c2ccc(OC)cc2)oc1C)S(=O)(=O)c1ccc(C)cc1	inconclusive: 15.8 µM [inhibitor, full curve]	
Cc1cc(C)cc(NC(=S)NCc2cccn2C)c1	active: 50.1 µM	
COc1cc(C(=O)NC(=S)Nc2ccccc2[N+](=O)[O-])cc(OC)c1OC	inconclusive: 50.1 µM [inhibitor, partial curve]	
COc1ccc(C2c3cc(OC)c(OC)cc3CCN2C(=O)c2ccccc2Br)cc1OC (configuration not stated)		inactive: -13.7%

Compound	Potency	activity change, negative = inhibition
Cc1ccc(CCC(=O)Nc2ccc(N(C)C)cc2)o1	inconclusive: 89.1 µM [inhibitor, single point]	
Cc1ccc(C(=O)Nc2sc(C)c(C)c2C(=O)c2ccccc2)cc1	inconclusive: 31.6 µM [inhibitor, partial curve]	
Cc1cc(C)cc(NS(=O)(=O)c2ccc3[nH]cc(C(=O)N4CCc5ccccc54)c(=O)c3c2)c1	inconclusive: 79.4 µM [inhibitor, single point]	
Cc1ccnc2nc(C(=O)Nc3nc(-c4ccccn4)cs3)nn12	active: 3.16 µM	
O=S(=O)(Nc1ccc(N2CCCCC2)cc1)c1ccc(F)c(F)c1	active: 31.6 µM	
CCN(CC)C(=O)c1csc(Nc2ccc(C)cc2)n1	inconclusive: 79.4 µM [inhibitor, partial curve]	
Cc1nnc(SCC(=O)NC2CCCCCC2)n1C(C)C		inactive: -9.9%
CC(C)(C)NC(=O)C(=O)NNC(=O)c1ccccc1	inconclusive: 89.1 µM [inhibitor, single point]	
Cc1occc1C(=O)N1CCCC(N2CCN(c3cccc(C(F)(F)F)c3)CC2)C1 (configuration not stated)	inconclusive: 35.5 µM [inhibitor, partial curve]	
CC1CCCC(C)N1CCNC(=O)CCc1nnc2n(Cc3ccccc3)c(=O)c3ccccc3n12 (configuration not stated)		inactive: -9.66%
CCc1ccc[n+](-c2[nH]c(=O)sc2/C=N/N=C(\[O-])c2ccncc2)c1	inconclusive: 79.4 µM [inhibitor, partial curve]	
COc1ccc(-c2cnnn2-c2ccc(NC(=O)/C=C/c3ccc(OC)c(OC)c3)cc2)cc1		inactive: -3.47%
Cc1cc(/C=N/NC(N)=O)c(C)n1-c1ccc(F)cc1		inactive: -38.3%
CCOc1ccc(S(=O)(=O)N2CCCCCC2)c2ccccc12		inactive: 15.5%
CC1=NN(C(=O)c2ccc(C)o2)C(O)(c2ccccc2)C1 (configuration not stated)	inconclusive: 89.1 µM [inhibitor, single point]	
CN1C(=O)/C(=C/c2ccccc2OCc2ccccc2F)NC1=S		inactive: -3.77% [at 57.1 µM]
COc1cccc(CNC(=O)c2oc3c(c2C)-c2nn(Cc4cccc(Cl)c4)cc2CC3)c1OC		inactive: -21.5%
Cn1ccnc1SCC(=O)c1ccc(Br)cc1	inconclusive: 50.1 µM [inhibitor, partial curve]	
Nc1[nH]c(N=NC(=O)c2ccc(F)cc2)c2ccccc12	inconclusive: 44.7 µM [inhibitor, partial curve]	
CCc1cccc(NC(=O)Cn2c(=O)n(CC(=O)NCCc3ccccc3)c(=O)c3ccccc32)c1	inconclusive: 89.1 µM [inhibitor, single point]	
CN(C)c1nc(NCc2ccccc2)nc(N/N=C/c2ccc3c(c2)OCO3)n1	inconclusive: 39.8 µM [inhibitor, partial curve]	
NS(=O)(=O)c1ccc(NC(=S)N2CCC(Cc3ccccc3)CC2)cc1	inconclusive: 79.4 µM [inhibitor, partial curve]	
O=C(c1ccco1)N1CCN(c2ncnc3c2nnn3Cc2ccccc2Cl)CC1	inconclusive: 89.1 µM [inhibitor, single point]	
CCc1cccc(OCCCCN(CC)CC)c1	inconclusive: 89.1 µM [inhibitor, single point]	
